PubChem BioAssay AID2101 (National Center for Advancing Translational Sciences (NCATS), 2009)
Hit rate of the full screen: of about 330,000 compounds, about 300 (0.091%) were called active. Inconclusive results, whose numbers are uncertain, are shown with a selection of clear calls. The call rests on the fitted dose curve; in most records, active means well fitted inhibition curve with a large enough effect; inconclusive means small, poorly fitted or top-dose-only effect, or effect the other way, or another doubt; inactive means no such curve, though single readings can be large or run the other way. Potencies of inconclusive entries are left out as doubtful fits.

Target: Lysosomal acid glucosylceramidase (Homo sapiens) (UniProt P04062)
Experiment: qHTS Assay for Inhibitors and Activators of N370S glucocerebrosidase as a Potential Chaperone Treatment of Gaucher Disease;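 on activity change, negative = inhibition: 0% = full enzyme activity and -100% = no enzyme basal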
Conditions: N370S GC spleen homogenate, 4MU-glucoside fluorescence; activity change, negative = inhibition: at 59.4 µM (top of the series) unless noted
Potency means the concentration at half of the fitted maximal effect.

Q: With `CCN1CCN(Cc2c(O)c(Cl)cc3c(C)cc(=O)oc23)CC1` as the molecule, how does the Potency read?
A: inconclusive [activator, partial curve]

Q: For `Cc1ccc(NC(=O)CC2C(=O)NC3CCCCC3N2C(=O)c2ccc(F)cc2)cc1C` (stereo not drawn), which Potency is on record?
A: inconclusive [inhibitor, partial curve]

Q: How did the Potency turn out when `CCc1cc(=O)oc2c(C)c(O)c(CN(C)C)cc12` was run?
A: inconclusive [activator, partial curve]

Q: For `COC(=O)c1ccccc1NC(=O)Nc1cc(C(C)(C)C)on1`, which Potency is on record?
A: inconclusive [activator, single point]

Q: With `O=C(Oc1cc2oc(=O)c3c(c2cc1Cl)CCCC3)c1cccs1` as the molecule, how does the Potency read?
A: inconclusive [activator, partial curve]

Q: With `Cc1cc(C)cc([N+](=O)[O-])c1` as the molecule, how does the Potency read?
A: inactive

Q: How did the Potency turn out when `CCOC(=O)C1CCN(C(=O)c2ccc3nc(-c4ccc(OC)cc4)c(-c4ccc(OC)cc4)nc3c2)CC1` was run?
A: inconclusive [activator, single point]

Q: `CCNC(=O)CN(c1ccc(F)cc1)S(=O)(=O)c1ccc2c(c1)OCCO2` was tested. Which Potency did it give?
A: inconclusive [inhibitor, full curve]

Q: With `Nc1c(-c2ccc(Cl)cc2)cnn1-c1cccc(C(F)(F)F)c1` as the molecule, how does the Potency read?
A: inactive

Q: With `Cc1cccc(NC(=S)NC(=O)/C=C/c2ccco2)c1` as the molecule, how does the Potency read?
A: inactive

Q: `CC1CCN(Cc2cc(=O)oc3cc(O)c(Cl)cc23)CC1` was tested. Which Potency did it give?
A: inconclusive [activator, partial curve]

Q: `CC(C)OC(=O)CSc1nc2cc3c(cc2cc1C#N)OCO3` was tested. Which Potency did it give?
A: inactive

Q: `Cn1c2ccccc2c(=O)c2c(=O)n(Cc3ccco3)c(-c3ccc(Cl)cc3Cl)nc21` was tested. Which Potency did it give?
A: inconclusive [activator, partial curve]

Q: How did the Potency turn out when `Cc1ccc(C(NC(=O)C2CCCCC2)c2c(O)ccc3ccccc23)cc1` (stereo not drawn) was run?
A: inconclusive [activator, partial curve]

Q: Which Potency does the source give for `CC(C)(C)c1ccccc1OCCOCCNCc1ccccc1` here?
A: inconclusive [inhibitor, single point]

Q: With `COc1ccccc1CNC(=O)OCc1nccnc1C(=O)Nc1ccc(Br)cn1` as the molecule, how does the Potency read?
A: inconclusive [inhibitor, single point]

Q: Which Potency does the source give for `CCOC(=O)c1ccc(NC(=O)CSc2nc3c(c(=O)n2CC)SC(C)C3)cc1` (stereo not drawn) here?
A: inconclusive [activator, single point]

Q: Which Potency does the source give for `Cc1ccc(S(=O)(=O)N(CC(=O)N/N=C/c2cccc3c2OCCO3)c2ccccc2F)cc1` here?
A: inconclusive [activator, partial curve]

Q: With `COc1ccc(/C=N/NC(=O)c2ccccc2OC)cc1COc1ccc(C)cc1` as the molecule, how does the Potency read?
A: inactive

Q: Which Potency does the source give for `Cc1ccc(OC(=S)Nc2ccc(O)cc2)cc1` here?
A: inconclusive [inhibitor, partial curve]

Q: `O=C(COc1ccc(/C=C\[N+](=O)[O-])cc1)N1CCOCC1` was tested. Which Potency did it give?
A: inactive

Q: For `COc1ccc2[nH]cc(CCNc3ncnc4ccc(-c5ccc(C(=O)N(C)C)cc5)cc34)c2c1`, which Potency is on record?
A: inactive

Q: Which Potency does the source give for `O=S(=O)(c1ccccc1F)N1CCN(c2nc3ccccc3s2)CC1` here?
A: inconclusive [inhibitor, single point]

Q: For `COc1cccc(C(=O)NNc2c3ccccc3nc3ccccc23)c1`, which Potency is on record?
A: inconclusive [activator, single point]

Q: With `CCOC(=O)c1c(NC(=O)COC(=O)c2ccc(C)s2)sc2c1CC(C)(C)NC2(C)C` as the molecule, how does the Potency read?
A: inconclusive [activator, partial curve]

Q: With `CC(C)(C)c1ccc(/C=C/C(=O)Nc2ccncc2)cc1` as the molecule, how does the Potency read?
A: inconclusive [inhibitor, single point]

Q: With `Fc1ccc(-n2c(Cc3ccccc3)nnc2SCc2nc(-c3cccs3)no2)cc1` as the molecule, how does the Potency read?
A: inconclusive [activator, single point]

Q: How did the Potency turn out when `CCOc1ccc(NC(=O)CSc2nnc(CNC(=O)c3ccco3)o2)cc1` was run?
A: inconclusive [inhibitor, single point]

Q: With `O=C(/C=C/c1cccc(Cl)c1)N1CCC(Cc2ccccc2)CC1` as the molecule, how does the Potency read?
A: inconclusive [activator, single point]

Q: How did the Potency turn out when `COc1cccc2cc(C(=O)NC3CC4CCC3C4)oc12` (stereo not drawn) was run?
A: inconclusive [activator, partial curve]

Q: Which activity change, negative = inhibition does the source give for `CCOC(=O)N(Cc1ccccc1)C(C(=O)O)C(C(=O)O)N(Cc1ccccc1)C(=O)OCC` (stereo not drawn) here?
A: inconclusive: 25.1% [activator]

Q: How did the Potency turn out when `COc1ccc(NC(=O)NNC(=O)c2ccc3ccccc3c2O)c(OC)c1` was run?
A: inconclusive [activator, single point]

Q: For `Cc1cc(C)nc(SCc2cc(=O)c(OC(=O)c3ccc(Cl)c([N+](=O)[O-])c3)co2)n1`, which activity change, negative = inhibition is on record?
A: inconclusive: 35.3% [activator]

Q: How did the Potency turn out when `Cc1cccc(NC(=O)c2nc[nH]c2C(=O)NCC(=O)OC(C)(C)C)c1` was run?
A: inconclusive [activator, partial curve, poor fit]

Q: Which Potency does the source give for `CC(C)C(C)NC(=O)CSc1nc2scc(-c3ccco3)c2c(=O)n1-c1ccccc1` (stereo not drawn) here?
A: active: 1.12 µM

Q: With `O=C(Oc1cc2oc(=O)c3c(c2cc1Cl)CCCC3)c1ccco1` as the molecule, how does the Potency read?
A: inconclusive [activator, partial curve]

Q: Which Potency does the source give for `CCOc1ccc(NC(=O)CCN2CCN(S(=O)(=O)c3cc(Cl)ccc3OC)CC2)cc1` here?
A: inactive

Q: `CN1CCC(Oc2ccccc2Sc2ccc(C(F)(F)F)cc2)CC1` was tested. Which Potency did it give?
A: inconclusive [inhibitor, partial curve, poor fit]

Q: For `O=C(N/N=C/c1ccco1)c1cc(-c2cccs2)[nH]n1`, which Potency is on record?
A: inconclusive [inhibitor, full curve, poor fit]

Q: With `COC(=O)C1=CN(Cc2ccc(OC)c(OC)c2)C=C(C(=O)OC)C1c1cccc(O)c1` as the molecule, how does the Potency read?
A: inconclusive [activator, partial curve]

Q: For `O=C(NCC(c1ccco1)N1CCCCC1)c1ccc(COc2ccccc2)cc1` (stereo not drawn), which Potency is on record?
A: inconclusive [inhibitor, partial curve]

Q: Which Potency does the source give for `CC(C)(C)C(=O)Nc1ccc(-c2cn3cccnc3n2)cc1` here?
A: inconclusive [activator, partial curve]

Q: `CCOC(=O)c1sc(NC(=O)CSc2nnc(-c3ccco3)n2CC)c(C(=O)OCC)c1C` was tested. Which Potency did it give?
A: inconclusive [activator, partial curve]

Q: `Cc1ccc(NC(=O)Nc2cccc(F)c2)nc1` was tested. Which Potency did it give?
A: inconclusive [activator, full curve]

Q: How did the Potency turn out when `Cc1cc2[nH]c(=O)c(=O)[nH]c2cc1S(=O)(=O)N1CCN(c2ccccc2)CC1` was run?
A: inconclusive [inhibitor, partial curve]

Q: With `Cc1cccc(OCC(=O)NC(=S)N2CCCc3ccccc32)c1` as the molecule, how does the Potency read?
A: inconclusive [inhibitor, single point]

Q: With `COc1ccc(OC)c(/C=N/NC(=O)c2nnn(-c3nonc3N)c2-c2cccs2)c1` as the molecule, how does the Potency read?
A: inconclusive [activator, single point]

Q: `CSC1=NCCN1C(=O)c1c(-c2c(F)cccc2Cl)noc1C` was tested. Which Potency did it give?
A: inconclusive [inhibitor, partial curve, poor fit]

Q: For `CC1(C)CC(=O)C=C(NNC(=O)c2ccccc2O)C1`, which Potency is on record?
A: inactive

Q: For `COc1ccc(OC)c(S(=O)(=O)N2CCC(C(=O)Nc3ccc(C)c(C)c3)CC2)c1`, which Potency is on record?
A: inconclusive [inhibitor, partial curve]

Q: How did the Potency turn out when `CCN(CC)S(=O)(=O)c1cccc(C(=O)N[C@H](C(=O)OCC(=O)Nc2ccccc2)C(C)C)c1` was run?
A: inconclusive [activator, partial curve]

Q: `CC(C)[C@@H](CC(=O)N[C@@H]1CCCC[C@H]1C(=O)N[C@H](CC(=O)N[C@@H](CCC(=O)O)CC(=O)O)Cc1ccccc1)NC(=O)C[C@H](Cc1ccccc1)NC(=O)[C@@H]1CCCC[C@H]1N` was tested. Which Potency did it give?
A: inconclusive [inhibitor, single point]

Q: How did the Potency turn out when `Cc1ccc(S(=O)(=O)N(CCO)Cc2cc3ccc(C)c(C)c3[nH]c2=O)cc1` was run?
A: inconclusive [activator, single point]

Q: Which Potency does the source give for `O=C(/C=C/c1ccc(Br)o1)NC(c1ccccc1)c1ccccc1` here?
A: inconclusive [activator, partial curve]

Q: How did the Potency turn out when `NC1=NC(c2ccc(Br)cc2)n2c(nc3ccccc32)N1` (stereo not drawn) was run?
A: inconclusive [inhibitor, single point]

Q: With `Cc1ccc2occ(/C=N/NC(=O)c3ccc(O)cc3)c(=O)c2c1` as the molecule, how does the Potency read?
A: inactive

Q: How did the Potency turn out when `CCCCc1ccc(NC(=O)CSc2nc(=O)n(CCCN3CCOCC3)c3c2CCC3)cc1` was run?
A: inconclusive [inhibitor, single point]

Q: `c1ccc(N2CCN(c3nc(-c4cccs4)nc4ccccc34)CC2)cc1` was tested. Which Potency did it give?
A: inconclusive [inhibitor, single point]

Q: For `C/C=C/c1ccc(OCC(=O)OCc2csc(Nc3ccc(C)cc3)n2)c(OC)c1`, which Potency is on record?
A: inactive

Q: Which Potency does the source give for `COc1ccc(/C=C2\S/C(=N/S(=O)(=O)c3cccs3)NC2=O)cc1` here?
A: inconclusive [activator, single point]

Q: `Nc1ccc(-c2nc3ccc([N+](=O)[O-])cc3[nH]2)cc1` was tested. Which Potency did it give?
A: inactive

Q: For `COC(=O)N1C2=C(c3ccccc3[C@@H]1CC(=O)Nc1ccc3cc4ccccc4cc3c1)[C@@H]1C(=O)N(c3ccccc3)C(=O)[C@@H]1[C@H](C)C2`, which activity change, negative = inhibition is on record?
A: inactive: 0.845% [at 12.8 µM]

Q: For `CCCn1c(SCC(=O)N2c3ccccc3Sc3ccccc32)nc2ccccc21`, which Potency is on record?
A: inconclusive [activator, full curve]
